First the molecules themselves.
B1: GPR68, Q15743 (parent)
chain: MGNITADNSSMSCTIDHTIHQTLAPVVYVTVLVVGFPANCLSLYFGYLQIKARNELGVYLCNLTVADLFYICSLPFWLQYVLQHDNWSHGDLSCQVCGILLYENIYISVGFLCCISVDRYLAVAHPFRFHQFRTLKAAVGVSVVIWAKELLTSIYFLMHEEVIEDENQHRVCFEHYPIQAWQRAINYYRFLVGFLFPICLLLASYQGILRAVRRSHGTQKSRKDQIQRLVLSTVVIFLACFLPYHVLLLVRSVWEASCDFAKGVFNAYHFSLLLTSFNCVADPVLYCFVSETTHRDLARLRGACLAFLTCSRTGRAREAYPLGAPEASGKSGAQGEEPELLTKLHPAFQTPNSPGSGGFPTGRLA

The least precise scores are not listed. Two further conditions of the source, in which the scores hardly spread, are not listed. Names with del lack the residues named; names with ins carry added residues between the positions named. For part of these data: The concentration of ogerin is not given here.

Data set [1] covers variants of B1. Description: cAMP reporter score (Enrich2 score, wild type = 0); higher = more signal; HEK293T, FACS bins.
The variants in data set [2] derive from B1. Description: surface expression score (Enrich2 score, wild type = 0); higher = more signal; HEK293T, FACS bins.

With K223W, the cAMP reporter score in data set [1] (pH 5.5) was -1.5; in data set [1] (pH 6), -0.758; in data set [1] (pH 6, modulator: ogerin), -2; in data set [1] (pH 6.5, modulator: ogerin) it was -1.69. The surface expression score in data set [2] is -0.696.
In the same order, the values of K223C are -0.383, -0.153, -0.693, 0.142 and 1.77.
K223H: the cAMP reporter score in data set [1] (pH 5.5) was -1.83; in data set [1] (pH 6, modulator: ogerin) it was -0.287; in data set [1] (pH 6.5, modulator: ogerin), -0.9. Besides, the surface expression score in data set [2] worked out at 0.962.
On to K223F, for which the cAMP reporter score in data set [1] (pH 5.5) was -0.685; in data set [1] (pH 6, modulator: ogerin), -0.646; in data set [1] (pH 6.5, modulator: ogerin), 0.086. For the same variant, the surface expression score in data set [2] was 1.58.
For the variant K223D, the cAMP reporter score in data set [1] (pH 5.5) is -1.05; in data set [1] (pH 6, modulator: ogerin), -1.06; in data set [1] (pH 6.5, modulator: ogerin), -1.17. Further, the surface expression score in data set [2] worked out at 0.306.
Regarding K223R, the cAMP reporter score in data set [1] (pH 5.5) is -0.444; in data set [1] (pH 6) it was -0.786; in data set [1] (pH 6, modulator: ogerin), -0.229; in data set [1] (pH 6.5, modulator: ogerin), -1.09. Besides, the surface expression score in data set [2] was found to be 0.666.
For K223I, the cAMP reporter score in data set [1] (pH 5.5) is -0.366; in data set [1] (pH 6), -1.4; in data set [1] (pH 6, modulator: ogerin) it was -1.51; in data set [1] (pH 6.5, modulator: ogerin) it was -0.673. Further, the surface expression score in data set [2] was determined as 1.49.
Take V230_L231insG: the cAMP reporter score is -2.27 in data set [1] (pH 5.5); -1.62 in data set [1] (pH 6); -1.17 in data set [1] (pH 6, modulator: ogerin); -0.627 in data set [1] (pH 6.5, modulator: ogerin).
With D224T, the cAMP reporter score in data set [1] (pH 5.5) is 0.413; in data set [1] (pH 6) it was 1.51; in data set [1] (pH 6, modulator: ogerin), -0.516; in data set [1] (pH 6.5, modulator: ogerin), -0.455.
D224Q: the cAMP reporter score was -0.464 in data set [1] (pH 5.5); -0.185 in data set [1] (pH 6); -0.043 in data set [1] (pH 6, modulator: ogerin); -0.31 in data set [1] (pH 6.5, modulator: ogerin). In addition, the surface expression score in data set [2] is -0.016.
In the case of D224L, the cAMP reporter score was -0.171 in data set [1] (pH 5.5); -0.858 in data set [1] (pH 6); -0.442 in data set [1] (pH 6, modulator: ogerin); -0.164 in data set [1] (pH 6.5, modulator: ogerin). In addition, the surface expression score in data set [2] was found to be 0.27.
Regarding D224Y, the cAMP reporter score in data set [1] (pH 5.5) was -0.418; in data set [1] (pH 6) it was -0.347; in data set [1] (pH 6, modulator: ogerin), -1.29; in data set [1] (pH 6.5, modulator: ogerin), -1.11. Moreover, the surface expression score in data set [2] is -0.803.
Take D224S: the cAMP reporter score in data set [1] (pH 5.5) is -0.761; in data set [1] (pH 6) it was -1.55; in data set [1] (pH 6, modulator: ogerin), -2.17; in data set [1] (pH 6.5, modulator: ogerin), -1.49. Further, the surface expression score in data set [2] was found to be 0.218.
D224W: the cAMP reporter score is -0.341 in data set [1] (pH 5.5); -0.446 in data set [1] (pH 6, modulator: ogerin); 0.721 in data set [1] (pH 6.5, modulator: ogerin). Further, the surface expression score in data set [2] amounted to 0.15.
As to D224H, the cAMP reporter score in data set [1] (pH 5.5) is 0.23; in data set [1] (pH 6) it was 0.461; in data set [1] (pH 6, modulator: ogerin), 0.348; in data set [1] (pH 6.5, modulator: ogerin), -0.281. For the same variant, the surface expression score in data set [2] was determined as 0.347.
For D224R, the cAMP reporter score in data set [1] (pH 5.5) was -0.594; in data set [1] (pH 6), 2.63; in data set [1] (pH 6, modulator: ogerin), 0.221; in data set [1] (pH 6.5, modulator: ogerin) it was 1.28. The surface expression score in data set [2] was determined as 0.336.
D224E: the cAMP reporter score in data set [1] (pH 5.5) amounted to 1.32; in data set [1] (pH 6) it was 1.97; in data set [1] (pH 6, modulator: ogerin), 1.43; in data set [1] (pH 6.5, modulator: ogerin), 1.38. Further, in data set [2], the surface expression score worked out at 1.08.
Turning to D224P, the cAMP reporter score in data set [1] (pH 5.5) is -0.503; in data set [1] (pH 6), -0.789; in data set [1] (pH 6, modulator: ogerin) it was 0.056; in data set [1] (pH 6.5, modulator: ogerin), -0.642. Also, in data set [2], the surface expression score stood at 1.37.
With D224G, the cAMP reporter score in data set [1] (pH 5.5) was 0.344; in data set [1] (pH 6) it was -0.718; in data set [1] (pH 6.5, modulator: ogerin), -1.57. The surface expression score in data set [2] stood at 0.874.
With D224F, the cAMP reporter score in data set [1] (pH 5.5) is 0.668; in data set [1] (pH 6), -0.858; in data set [1] (pH 6, modulator: ogerin) it was 0.564; in data set [1] (pH 6.5, modulator: ogerin), -0.456. In addition, the surface expression score in data set [2] is 1.26.
Regarding D224A, the cAMP reporter score is 1.3 in data set [1] (pH 5.5); 1.85 in data set [1] (pH 6); 0.778 in data set [1] (pH 6, modulator: ogerin); 0.822 in data set [1] (pH 6.5, modulator: ogerin). Besides, in data set [2], the surface expression score is 0.844.
For D224N, in that order: -0.415, 0.217, -0.673, -0.573 and -0.228.
On to D224I, for which the cAMP reporter score was 0.02 in data set [1] (pH 5.5); -0.521 in data set [1] (pH 6); 1.2 in data set [1] (pH 6, modulator: ogerin); -0.238 in data set [1] (pH 6.5, modulator: ogerin). For the same variant, the surface expression score in data set [2] turned out to be 1.45.
For D224V, in that order: 0.74, 0.568, 1, 1.31 and 0.8.
Consider Q225_I226del, for which the cAMP reporter score in data set [1] (pH 5.5) is -0.022; in data set [1] (pH 6), -0.867; in data set [1] (pH 6.5, modulator: ogerin), -0.071. For the same variant, in data set [2], the surface expression score came to 1.78.
In the case of Q227_L229del, the cAMP reporter score in data set [1] (pH 5.5) was -2.02; in data set [1] (pH 6), -1.23; in data set [1] (pH 6, modulator: ogerin), -1.07; in data set [1] (pH 6.5, modulator: ogerin) it was -1.45. Further, the surface expression score in data set [2] was determined as 0.093.
On to D224_Q225del, for which the cAMP reporter score is -1.1 in data set [1] (pH 5.5); -2.06 in data set [1] (pH 6); -1.1 in data set [1] (pH 6, modulator: ogerin); -1.14 in data set [1] (pH 6.5, modulator: ogerin). Besides, the surface expression score in data set [2] came to 0.037.
Take V235_I236insGSG: the cAMP reporter score in data set [1] (pH 5.5) was -2.24; in data set [1] (pH 6), -0.81; in data set [1] (pH 6, modulator: ogerin), -1.19; in data set [1] (pH 6.5, modulator: ogerin) it was -2.17. Moreover, the surface expression score in data set [2] is -4.08.
In the case of S232_T233del, the cAMP reporter score was -1.08 in data set [1] (pH 5.5); -0.658 in data set [1] (pH 6); -1.63 in data set [1] (pH 6, modulator: ogerin); -1.02 in data set [1] (pH 6.5, modulator: ogerin). Moreover, the surface expression score in data set [2] is -1.61.
For I236T, in that order: -0.483, 0.705, -0.553, 0.399 and -1.27.
Turning to I236G, the cAMP reporter score was -1.34 in data set [1] (pH 5.5); 0.097 in data set [1] (pH 6, modulator: ogerin); -0.271 in data set [1] (pH 6.5, modulator: ogerin). The surface expression score in data set [2] was -1.61.
With I236E, the cAMP reporter score in data set [1] (pH 5.5) was -0.9; in data set [1] (pH 6), -0.409; in data set [1] (pH 6, modulator: ogerin) it was -0.177; in data set [1] (pH 6.5, modulator: ogerin), -1.87.

(Values after the GPR68 mutational scans of Howard et al. (2025).)
